# Source: PubChem BioAssay AID485294 (National Center for Advancing Translational Sciences (NCATS), 2010)
# In all, about 370,000 compounds went through this assay and about 150 (0.041%) were called active. The shares of active, inactive and inconclusive entries below differ from those in the screen. Calls follow the shape of the dose curve; as a rule, active = well fitted inhibition curve with a large enough effect; inconclusive = small, poorly fitted or top-dose-only effect; inactive = flat fitted curve, though single readings scatter. Potencies of inconclusive entries are left out as doubtful fits.
# Target: Beta-lactamase (Escherichia coli (strain K12)) (UniProt P00811)
# Test: qHTS Inhibitors of AmpC Beta-Lactamase (assay with detergent); also: nearly all actives have a fitted effect of over 25% in size
# Details: AmpC hydrolysis of nitrocefin, absorbance 480 nm, 0.01% Triton; series mostly up to 114 µM
# Procedure, shortened: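 20 mM phosphate pH 7.0 + 0.01% (detergent screen) or 0.0001% Triton X-100; 5.3 nM AmpC reagent; cpd preinc 15 min RT; nitrocefin (800 uM stock) to start; A480 q20 s × 4 min; Activity was normalised to no-enzyme and no-compound control wells.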
# Potency is read from the fitted curve at half-maximal effect; tags tell the direction and shape of the fitted curve.
# Sequence of UniProt P00811 (P00811 whole entry, looked up): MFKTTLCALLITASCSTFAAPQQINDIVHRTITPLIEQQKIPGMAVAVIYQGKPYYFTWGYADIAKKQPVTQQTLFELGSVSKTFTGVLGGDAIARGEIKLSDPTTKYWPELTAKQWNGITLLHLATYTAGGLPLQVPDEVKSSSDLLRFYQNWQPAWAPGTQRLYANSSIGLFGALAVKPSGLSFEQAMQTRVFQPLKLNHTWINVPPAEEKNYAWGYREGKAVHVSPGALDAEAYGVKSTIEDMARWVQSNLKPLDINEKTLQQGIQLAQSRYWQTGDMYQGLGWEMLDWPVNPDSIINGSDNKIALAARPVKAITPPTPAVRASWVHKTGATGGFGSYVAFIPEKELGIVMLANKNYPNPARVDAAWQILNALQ
row,Compound,Potency
1,CCOc1ccc(CCNS(=O)(=O)c2ccc3c(c2)N(C(C)=O)CCO3)cc1OCC,inactive
2,CC1=C(C(=O)Nc2ccc(Cl)cc2)C(c2ccc(C(F)(F)F)cc2)n2nnnc2N1 (configuration not stated),inactive
3,Cc1ccc(C(=O)OCC2OC3OC(C)(C)OC3C2O)cc1 (configuration not stated),"inconclusive [inhibitor, full curve, poor fit]"
4,COc1ccc2nc(-c3ccccc3)[nH]c2c1,"inconclusive [inhibitor, single point]"
5,CSc1ccc(/C=N/n2c(C)cc(C)cc2=O)cc1,"inconclusive [inhibitor, full curve, poor fit]"
6,COc1ccc(Cl)cc1NS(=O)(=O)c1cccc(C(=O)NCC(c2ccco2)N2CCCC2)c1 (configuration not stated),inactive
7,COC(=O)N/N=C/c1cc(C)n(-c2ccc(F)cc2)c1C,inactive
8,Cc1ccc(CN=C2Nc3ccccc3CS2)cc1,"inconclusive [inhibitor, partial curve]"
9,Cc1ccc(-n2c(SCC(=O)NCC3CCCO3)nc3n[nH]c(C)c3c2=N)cc1Cl (configuration not stated),inactive
10,O=C(Nc1cc(Br)ccc1O)c1cnn2c(C(F)F)cc(C3CC3)nc12,inactive
11,NC(=O)NC(=O)CN1C(=O)NC2(CCOc3ccccc32)C1=O (configuration not stated),"inconclusive [inhibitor, full curve]"
12,COc1ccc2[nH]cc(CCNC(=O)CCC3CCCCC3)c2c1,"inconclusive [inhibitor, full curve]"
13,Cc1ccc(N=C2NC(=O)/C(=C/c3cccn3C)S2)cc1C,inactive
14,Cc1nonc1NC(=O)CSc1nc2cc(Cl)ccc2c2c1CCCC2,"inconclusive [inhibitor, full curve, poor fit]"
15,Cc1ccc(N=Nc2c(C)[nH][nH]c2=O)c(C)c1,"inconclusive [inhibitor, full curve, poor fit]"
16,CCc1ccc(-c2cc(C)no2)cc1S(=O)(=O)N1CCN(c2ccccc2OC)CC1,"inconclusive [inhibitor, partial curve, poor fit]"
17,Cc1ccc(-c2noc(CN(C)C(=O)c3ccoc3C)n2)cc1,inactive
18,Cc1cccc(CSc2ncnc3nc[nH]c23)c1,"inconclusive [inhibitor, full curve, poor fit]"
19,CCC(C)N1C(=O)NC(=O)C2(Cc3cc(C)ccc3N(C)C2)C1=O (configuration not stated),"inconclusive [inhibitor, full curve]"
20,Cc1[nH]c2ccccc2c1-c1csc(NC(=O)CN2CCOCC2)n1,"inconclusive [inhibitor, partial curve, poor fit]"
21,CN(CC(=O)Nc1ccc(Cl)c(Cl)c1)C(=O)C1CCCC1,inactive
22,Cc1ccc(-n2nnnc2SCC(=O)Nc2c(C)n(C)n(-c3ccccc3)c2=O)cc1,"inconclusive [inhibitor, full curve]"
23,Cc1nc(N2CCN(S(=O)(=O)c3ccc(F)cc3)CC2)c2c(C)c(C)sc2n1,"inconclusive [inhibitor, full curve, poor fit]"
24,COc1cc(C(=O)N/N=C/c2ccc(OC(=O)c3cccc(C)c3)cc2)ccc1O,inactive

row,Compound,Potency
1,CCN1CCCC1CNC(=O)COc1cc(=O)n(C)c2ccccc12 (configuration not stated),"inconclusive [inhibitor, single point]"
2,O=C(CSc1nnc(CNC(=O)c2c(F)cccc2Cl)o1)NCc1ccc(F)cc1,inactive
3,COc1cccc(CC2(CO)CCCN(Cc3cn(C)c4ccccc34)C2)c1 (configuration not stated),inactive
4,CCOC(=O)C1CCN(C(=O)Nc2ccc(OC(F)(F)F)cc2)CC1,inactive
5,COc1ccc(N2C(=O)CC(Sc3ncn[nH]3)C2=O)c(OC)c1 (configuration not stated),"inconclusive [inhibitor, full curve, poor fit]"
6,Cc1ccc(/C(O)=C2\C(=O)C(=O)N(CCN(C)C)C2c2ccccc2F)cc1 (configuration not stated),"inconclusive [inhibitor, full curve, poor fit]"
7,CC(=O)c1ccc(NC(=O)c2cccc(S(=O)(=O)N3CCN(C)CC3)c2)cc1,"inconclusive [inhibitor, partial curve, poor fit]"
8,Cc1ccc(CN2CCNC(=O)C2CC(=O)O)o1 (configuration not stated),"inconclusive [inhibitor, full curve]"
9,CNC(=S)N/N=C/c1cn(CCOc2cccc(OC)c2)c2ccccc12,inactive
10,O=c1/c(=C/c2ccccn2)sc2n1CN(c1ccccc1)CN=2,"inconclusive [inhibitor, partial curve]"
11,Cc1cccc(Oc2ccc(C(=O)NC3CCSC3=O)cn2)c1C (configuration not stated),"inconclusive [inhibitor, single point]"
12,O=S(=O)(c1ccccc1)c1nnn2c1nc(NCc1ccccc1)c1sccc12,inactive
13,CC1CCc2cc(F)ccc2N1C(=O)CSc1nnc2c(n1)[nH]c1ccccc12 (configuration not stated),inactive
14,Cn1nc(C(=O)N2CCOCC2)c2ccccc2c1=O,"inconclusive [inhibitor, partial curve]"
15,O=[N+]([O-])c1cc(O)c(O)c([N+](=O)[O-])c1,"inconclusive [inhibitor, full curve, poor fit]"
16,Cc1ccc2nc(NC(=O)C3CCN(S(=O)(=O)c4cccnc4)CC3)sc2c1,"inconclusive [inhibitor, full curve, poor fit]"
17,CCOCCCN(Cc1ccco1)C(=O)c1cc2c(=O)[nH]c3ccc(C)cc3c2s1,inactive
18,COCCn1c(-c2ccc(OC)c(OC)c2)nc2ccccc21,"inconclusive [inhibitor, full curve]"
19,O=S(=O)(c1ccccc1)n1ccc(-c2cnc(-c3ccccc3)s2)n1,inactive
20,CS(=O)(=O)NCCCNc1ccc(C(F)(F)F)cc1[N+](=O)[O-],inactive
21,CCCCCC(=O)Nc1ccc(N2CCN(C(=O)CCC)CC2)cc1,"inconclusive [inhibitor, partial curve]"
22,O=C(O)COc1nsnc1N1CCOCC1,"inconclusive [inhibitor, full curve, poor fit]"
23,CCO[C@@H]1OC(C(=O)NCc2ccccc2)=C[C@H](c2cn(C(C)=O)c3ccccc23)[C@H]1CCCO,inactive
